Test system: RAW 264.7 (Mouse leukaemic monocyte macrophage cell line) cells
Assay: Phagocytosis assay (Fluorescein-labeled Escherichia coli, flow cytometry)
Details: 10 micrograms per ml; RAW 264.7 cells; 30 min preincubation, 60 min ingestion

Q: Which “induction of phagocytosis as compared to the control experiment” value does the source give for “Ala-Cys-Asn-Thr-Ala-Thr-Cys-Val-Thr-His-Arg-Leu-Ala-Gly-Leu-Leu-Ser-Arg-Ser-Gly-Gly-Met-Val-Lys-Ser-Asn-Phe-Val-Pro-Thr-Asn-Val-Gly-Ser-Lys-Ala-Phe-NH2 [peptide 1]” here?
A: Its value is “did not induce phagocytosis”.
